# The supplement of paper PMC12217912
# Some of the results follow. The full chains were built here from the parent and the listed change. Values near 0.05 are background.
# B1: TEV protease; numbered along this chain (parent)
# chain: MGESLFKGPRDYNPISSSICHLTNESDGHTTSLYGIGFGPFIITNKHLFRRNNGTLVVQSLHGVFKVKDTTTLQQHLVDGRDMIIIRMPKDFPPFPQKLKFREPQREERICLVTTNFQTKSMSSMVSDTSCTFPSGDGIFWKHWIQTKDGQCGSPLVSTRDGFIVGIHSASNFTNTNNYFTSVPKNFMELLTNQEAQQWVSGWRLNADSVLWGGHKVFMVKPEEPFQPVKEATQL
# Variants of: B1
# Experiment: raw area under fraction-flipped curve 0-4 h after induction (AUC4h, not background-subtracted), DNA-recorder readout of cleavage of the substrate (dimensionless); higher = more cleavage of the substrate by the protease variant
# Details: temperature: 34 °C; time window: 0-4 h after rhamnose induction
# Procedure: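 In vivo DNA recorder in E. coli TOP10(DE3) ΔrhaA at 34 °C. Each TEVp single-site mutant (parent TEVp 0) is paired with a single-site variant of the 7-mer TEVs (canonical ENLYFQ|S). The substrate sits between flexible linkers in a Bxb1-sfGFP-TEVs-SsrA fusion, so cleavage stabilises Bxb1 and speeds flipping of a recombination array, read by NGS. The value is the raw area under the fraction-flipped curve over 0-4 h after rhamnose induction (AUC4h), with ≥20 reads per time point. It is not background-subtracted; inactive controls average about 0.047.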
# 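Further: Bxb1 expression induced with 0.2% (w/v) L-rhamnose at OD600 near 0.5, cultures sampled hourly, flipped fraction per protease–substrate barcode pair counted by paired-end Illumina sequencing.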
variant,measurement,value
Y34M,area with substrate ENLYDQS,0.0692
same,area with substrate ENLYGQS,0.0644
same,area with substrate ENLYHQS,0.0646
same,area with substrate ENLYLQS,0.0643
same,area with substrate ENLYMQS,0.0853
same,area with substrate ENLYNQS,0.0777
same,area with substrate ENLYPQS,0.064
same,area with substrate ENLYQQS,0.0525
same,area with substrate ENLYSQS,0.0734
same,area with substrate ENLYWQS,0.0887
Y34D,area with substrate ENLYDQS,0.0644
same,area with substrate ENLYHQS,0.0632
same,area with substrate ENLYKQS,0.0468
same,area with substrate ENLYNQS,0.0499
same,area with substrate ENLYPQS,0.0657
same,area with substrate ENLYTQS,0.0489
same,area with substrate ENLYVQS,0.0795
same,area with substrate ENLYWQS,0.0358
F41M,area with substrate ENLYDQS,0.0562
same,area with substrate ENLYEQS,0.0735
same,area with substrate ENLYGQS,0.0795
same,area with substrate ENLYHQS,0.0613
same,area with substrate ENLYIQS,0.135
same,area with substrate ENLYKQS,0.0658
same,area with substrate ENLYLQS,0.0954
same,area with substrate ENLYMQS,0.0997
same,area with substrate ENLYPQS,0.0659
same,area with substrate ENLYRQS,0.0537
same,area with substrate ENLYSQS,0.0756
same,area with substrate ENLYTQS,0.0824
same,area with substrate ENLYVQS,0.162
same,area with substrate ENLYWQS,0.0832
same,area with substrate ENLYYQS,0.0581
G162T,area with substrate ENLYCQS,0.0781
same,area with substrate ENLYDQS,0.0558
same,area with substrate ENLYEQS,0.0562
same,area with substrate ENLYHQS,0.0651
same,area with substrate ENLYIQS,0.109
same,area with substrate ENLYKQS,0.0579
same,area with substrate ENLYNQS,0.0611
same,area with substrate ENLYPQS,0.0613
same,area with substrate ENLYQQS,0.0713
same,area with substrate ENLYRQS,0.0562
same,area with substrate ENLYTQS,0.0798
same,area with substrate ENLYWQS,0.0854
same,area with substrate ENLYYQS,0.0872
F101A,area with substrate ENLYCQS,0.0576
same,area with substrate ENLYDQS,0.0553
same,area with substrate ENLYGQS,0.0594
same,area with substrate ENLYHQS,0.0481
same,area with substrate ENLYKQS,0.0457
same,area with substrate ENLYLQS,0.0729
same,area with substrate ENLYNQS,0.0492
same,area with substrate ENLYQQS,0.0508
same,area with substrate ENLYVQS,0.0694
same,area with substrate ENLYWQS,0.0627
same,area with substrate ENLYYQS,0.0765
M188H,area with substrate ENLYCQS,0.0374
same,area with substrate ENLYEQS,0.0619
same,area with substrate ENLYGQS,0.0737
same,area with substrate ENLYIQS,0.16
same,area with substrate ENLYLQS,0.0825
same,area with substrate ENLYPQS,0.0786
same,area with substrate ENLYTQS,0.0665
same,area with substrate ENLYWQS,0.0807
N116I,area with substrate ENLYCQS,0.0758
same,area with substrate ENLYDQS,0.0387
same,area with substrate ENLYEQS,0.0626
same,area with substrate ENLYKQS,0.029
same,area with substrate ENLYQQS,0.0675
same,area with substrate ENLYTQS,0.0926
same,area with substrate ENLYVQS,0.0973
G166Y,area with substrate ENLYCQS,0.0408
same,area with substrate ENLYEQS,0.0728
same,area with substrate ENLYIQS,0.0504
same,area with substrate ENLYKQS,0.0781
same,area with substrate ENLYNQS,0.0502
same,area with substrate ENLYPQS,0.053
V58A,area with substrate ENLYDQS,0.0619
same,area with substrate ENLYIQS,0.105
same,area with substrate ENLYYQS,0.0564
V58I,area with substrate ENLYDQS,0.0369
same,area with substrate ENLYGQS,0.0538
same,area with substrate ENLYHQS,0.0682
same,area with substrate ENLYIQS,0.113
same,area with substrate ENLYLQS,0.0923
same,area with substrate ENLYMQS,0.107
same,area with substrate ENLYPQS,0.0092
same,area with substrate ENLYTQS,0.0903
same,area with substrate ENLYVQS,0.118
V58W,area with substrate ENLYDQS,0.0367
same,area with substrate ENLYEQS,0.0651
same,area with substrate ENLYHQS,0.0485
same,area with substrate ENLYIQS,0.0552
same,area with substrate ENLYKQS,0.037
same,area with substrate ENLYMQS,0.0481
same,area with substrate ENLYSQS,0.0549
D82S,area with substrate ENLYDQS,0.039
same,area with substrate ENLYHQS,0.0616
same,area with substrate ENLYIQS,0.0615
same,area with substrate ENLYKQS,0.0706
same,area with substrate ENLYRQS,0.064
R87E,area with substrate ENLYDQS,0.0728
same,area with substrate ENLYEQS,0.0597
same,area with substrate ENLYHQS,0.0654
same,area with substrate ENLYNQS,0.042
same,area with substrate ENLYRQS,0.0745
same,area with substrate ENLYSQS,0.0775
same,area with substrate ENLYVQS,0.117
R87M,area with substrate ENLYDQS,0.0551
same,area with substrate ENLYHQS,0.0612
same,area with substrate ENLYKQS,0.0818
same,area with substrate ENLYNQS,0.0647
same,area with substrate ENLYSQS,0.0733
R87L,area with substrate ENLYDQS,0.0636
same,area with substrate ENLYEQS,0.0556
same,area with substrate ENLYGQS,0.0641
same,area with substrate ENLYHQS,0.0494
same,area with substrate ENLYIQS,0.0971
same,area with substrate ENLYLQS,0.0834
same,area with substrate ENLYQQS,0.0638
same,area with substrate ENLYTQS,0.0779
same,area with substrate ENLYVQS,0.0988
same,area with substrate ENLYYQS,0.0712
F49L,area with substrate ENLYDQS,0.078
same,area with substrate ENLYEQS,0.0593
same,area with substrate ENLYIQS,0.0516
same,area with substrate ENLYPQS,0.0637
same,area with substrate ENLYRQS,0.077
F38S,area with substrate ENLYDQS,0.0539
same,area with substrate ENLYEQS,0.0586
same,area with substrate ENLYGQS,0.0565
same,area with substrate ENLYHQS,0.0542
same,area with substrate ENLYIQS,0.0851
same,area with substrate ENLYKQS,0.0527
same,area with substrate ENLYMQS,0.0824
same,area with substrate ENLYNQS,0.0556
same,area with substrate ENLYPQS,0.0867
same,area with substrate ENLYQQS,0.0569
same,area with substrate ENLYRQS,0.0562
same,area with substrate ENLYSQS,0.0566
same,area with substrate ENLYVQS,0.0802
same,area with substrate ENLYWQS,0.0793
I36G,area with substrate ENLYDQS,0.0401
same,area with substrate ENLYGQS,0.0203
same,area with substrate ENLYLQS,0.0316
same,area with substrate ENLYMQS,0.0661
same,area with substrate ENLYNQS,0.0608
same,area with substrate ENLYRQS,0.0654
same,area with substrate ENLYVQS,0.0434
same,area with substrate ENLYWQS,0.0593
T72I,area with substrate ENLYDQS,0.0476
same,area with substrate ENLYEQS,0.0528
same,area with substrate ENLYKQS,0.0496
same,area with substrate ENLYMQS,0.0808
same,area with substrate ENLYNQS,0.0786
same,area with substrate ENLYQQS,0.0321
same,area with substrate ENLYRQS,0.0491
same,area with substrate ENLYSQS,0.0762
same,area with substrate ENLYWQS,0.0812
same,area with substrate ENLYYQS,0.073
